# Source: publication PMC5702604
# By UniProt entry, the sequences of proteins in these tests, tags left out.
# UniProt P16615: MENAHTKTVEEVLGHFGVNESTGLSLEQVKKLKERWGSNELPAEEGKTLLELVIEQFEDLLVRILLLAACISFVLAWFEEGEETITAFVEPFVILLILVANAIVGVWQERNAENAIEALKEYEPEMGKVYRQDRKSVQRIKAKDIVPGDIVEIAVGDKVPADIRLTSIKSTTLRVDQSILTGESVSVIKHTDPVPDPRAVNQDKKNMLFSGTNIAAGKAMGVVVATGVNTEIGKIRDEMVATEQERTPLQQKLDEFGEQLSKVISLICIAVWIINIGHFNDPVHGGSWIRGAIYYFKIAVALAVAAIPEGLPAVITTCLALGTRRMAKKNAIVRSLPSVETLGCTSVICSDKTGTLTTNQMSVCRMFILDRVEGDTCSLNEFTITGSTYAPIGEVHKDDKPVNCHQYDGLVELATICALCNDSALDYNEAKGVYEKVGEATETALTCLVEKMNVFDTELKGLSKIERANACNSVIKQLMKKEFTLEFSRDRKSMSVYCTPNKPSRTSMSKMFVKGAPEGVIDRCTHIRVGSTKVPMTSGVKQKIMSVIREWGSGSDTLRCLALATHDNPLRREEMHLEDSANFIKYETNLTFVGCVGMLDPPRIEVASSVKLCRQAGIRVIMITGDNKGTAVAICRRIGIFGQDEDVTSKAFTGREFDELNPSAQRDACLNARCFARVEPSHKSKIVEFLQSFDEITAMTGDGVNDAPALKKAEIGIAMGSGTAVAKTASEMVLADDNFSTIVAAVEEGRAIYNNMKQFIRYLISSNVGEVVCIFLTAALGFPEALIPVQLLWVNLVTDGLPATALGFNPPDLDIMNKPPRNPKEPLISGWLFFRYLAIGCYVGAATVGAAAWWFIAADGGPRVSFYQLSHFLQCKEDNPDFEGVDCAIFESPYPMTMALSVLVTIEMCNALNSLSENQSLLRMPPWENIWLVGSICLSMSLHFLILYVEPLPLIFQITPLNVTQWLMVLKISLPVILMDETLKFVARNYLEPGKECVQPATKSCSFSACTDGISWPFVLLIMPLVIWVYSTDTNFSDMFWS
# These are yes or no findings as the source states them, for the method shown. Binding seen in cells or lysates may run through a third protein. Some results given as binding are weak or reduced against the parent protein; the word gives no strength.
# Target: Flag-tagged SERCA2 (SERCA2b) (UniProt P16615)
# Assay: pull-down; competition: synthetic peptide added at 200 μM to HEK293T lysates holding Piezo1-GST and Flag-SERCA2, overnight; read as Flag-SERCA2 pulled down by Piezo1-GST; only the binder purified
binder,measurement,value
"TEKKYPQPKGQKKKK (myristoylated at its N-terminus) [linker-peptide (amino acids 2171–2185 of mPiezo1), myristoylated]",binding,binds
